Measured values taken from patent publication US20250327097A1, “ORGANISMS PRODUCING LESS CROTONIC ACID” (Global Bioenergies, priority 2021, published 2025).

Assays:
TaFdcV = experiment: Acid binding and cycloadduct formation with TaFdcV (UV-Vis, ESI-MS, co-crystallization)
Method: (§1) Incubation of 80 μmol TaFdcV with 10 mM 3-methylcrotonic acid led to a complete shift in the corresponding UV-Vis spectrum.
(§2) In order to assess the scope for activity with acrylic acids lacking extended conjugation, TaFdc and TaFdcV were incubated with trans-2-pentenoic and trans-2-hexenoic acid, compounds that have previously been reported to undergo some AnFdc-mediated decarboxylation.
(§3) The effects of crotonic and 2-butynoic acid on TaFdcV were studied to determine whether the mutations that increase in 3-methylcrotonic acid turnover also affected activity with related compounds. Incubation of TaFdcV with 2-butynoic and crotonic acid led to the familiar split of the 380 nm prFMN peak in the UV-Vis spectrum (FIGS. 7A and D), similar to 3-methylcrotonic acid.
Upon addition of crotonic acid, a gradual shift in UV-Vis spectrum occurs over minutes, allowing estimation of adduct formation rate (FIG. 8A). The observed rate remains first order with respect to crotonic acid, with kobs=0.34±0.03 min at the highest concentration tested (50 mM) (FIG. 8B). In contrast, a similar shift in UV-Vis spectrum upon addition of the substrate 3-methylcrotonic acid occurs rapidly within seconds, and at substantially lower 3-methylcrotonic acid concentrations.
No decarboxylation of the Int1 with 2-butynoic acid was detected, even in 1-month-old crystals. […]

TaFdc = experiment: Acid binding and cycloadduct formation with TaFdc wild-type (UV-Vis)
Method: as §1, §2, §3

**Q.** For `CC(C)=CC(=O)O` [3-methylcrotonic acid], which “binding to TaFdcV, UV-Vis spectrum after desalting” value (TaFdcV) is on record?
**A.** long-lived, inhibitory covalent complex with 3-methylcrotonic acid is not formed

**Q.** And the “binding to TaFdc, UV-Vis spectrum after desalting” value (TaFdc)?
**A.** long-lived, inhibitory covalent complex with 3-methylcrotonic acid is not formed

**Q.** How did the “state of the adduct by ESI-MS and co-crystallization” value (TaFdcV) turn out when `C/C=C/C(=O)O` [crotonic acid] was run?
**A.** undergoes decarboxylation to stall at the Int3 species
